Patent US20250144178A1, “PHARMACEUTICAL COMPOSITION FOR CANCER TREATMENT COMPRISING FUSION PROTEIN INCLUDING IL-12 AND ANTI-FAP ANTIBODY AND ANTICANCER AGENT” (KANAPH THERAPEUTICS INC., priority 2022, published 2025)

T1: recombinant human FAP (Homo sapiens, UniProt Q12884)
T1 sequence (Q12884 1-760): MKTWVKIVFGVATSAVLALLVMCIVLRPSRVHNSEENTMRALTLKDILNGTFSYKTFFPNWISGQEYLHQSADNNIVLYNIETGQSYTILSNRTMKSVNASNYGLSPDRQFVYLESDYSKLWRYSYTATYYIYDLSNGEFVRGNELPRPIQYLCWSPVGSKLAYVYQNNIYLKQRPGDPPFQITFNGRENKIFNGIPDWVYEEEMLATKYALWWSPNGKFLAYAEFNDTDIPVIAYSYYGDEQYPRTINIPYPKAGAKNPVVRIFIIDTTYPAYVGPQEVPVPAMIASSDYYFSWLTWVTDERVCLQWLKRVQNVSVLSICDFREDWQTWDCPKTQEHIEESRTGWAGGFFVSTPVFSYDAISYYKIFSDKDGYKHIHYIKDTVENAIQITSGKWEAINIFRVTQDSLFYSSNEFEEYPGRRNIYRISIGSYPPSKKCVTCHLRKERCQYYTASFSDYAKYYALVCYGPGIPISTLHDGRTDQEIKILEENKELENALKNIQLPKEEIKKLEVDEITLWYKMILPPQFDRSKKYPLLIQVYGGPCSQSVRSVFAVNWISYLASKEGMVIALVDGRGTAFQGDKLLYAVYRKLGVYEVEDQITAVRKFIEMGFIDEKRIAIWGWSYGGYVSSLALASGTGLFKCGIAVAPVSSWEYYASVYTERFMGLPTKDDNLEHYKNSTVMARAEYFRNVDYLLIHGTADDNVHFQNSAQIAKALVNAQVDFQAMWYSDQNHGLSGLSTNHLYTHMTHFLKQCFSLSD

B1: T1.01: K&H bispecific: anti-hu FAP/hu IL-12, hu IgG1 DANG (seq1, seq2, seq3) (antibody)
heavy: QVQLVQSGAEVKKPGASVKVSCKTSRYTFTEYTIHWVRQAPGQRLEWIGGINPNNGIPNYNQKFKGRVTITVDTSASTAYMELSSLRSEDTAVYYCARRRIAYGYDEGHAMDYWGQGTLVTVSSASTKGPSVFPLAPSSKSTSGGTAALGCLVKDYFPEPVTVSWNSGALTSGVHTFPAVLQSSGLYSLSSVVTVPSSSLGTQTYICNVNHKPSNTKVDKKVEPKSCDKTHTCPPCPAPELLGGPSVFLFPPKPKDTLMISRTPEVTCVVVAVSHEDPEVKFNWYVDGVEVHNAKTKPREEQYGSTYRVVSVLTVLHQDWLNGKEYKCKVSNKALPAPIEKTISKAKGQPREPQVYTLPPSRDELTKNQVSLWCLVKGFYPSDIAVEWESNGQPENNYKTTPPVLDSDGSFFLYSKLTVDKSRWQQGNVFSCSVMHEALHNHYTQKSLSLSPGK
light: DIVMTQSPDSLAVSLGERATINCKSSQSLLYSRNQKNYLAWYQQKPGQPPKLLIFWASTRESGVPDRFSGSGFGTDFTLTISSLQAEDVAVYYCQQYFSYPLTFGQGTKVEIKRTVAAPSVFIFPPSDEQLKSGTASVVCLLNNFYPREAKVQWKVDNALQSGNSQESVTEQDSKDSTYSLSSTLTLSKADYEKHKVYACEVTHQGLSSPVTKSFNRGEC
chain: IWELKKDVYVVELDWYPDAPGEMVVLTCDTPEEDGITWTLDQSSEVLGSGKTLTIQVKEFGDAGQYTCHKGGEVLSHSLLLLHKKEDGIWSTDILKDQKEPKNKTFLRCEAKNYSGRFTCWWLTTISTDLTFSVKSSRGSSDPQGVTCGAATLSAERVRGDNKEYEYSVECQEDSACPAAEESLPIEVMVDAVHKLKYENYTSSFFIRDIIKPDPPKNLQLKPLKNSRQVEVSWEYPDTWSTPHSYFSLTFCVQVQGKSKREKKDRVFTDKTSATVICRKNASISVRAQDRYYSSSWSEWASVPCSGGGGSGGGGSGGGGSRNLPVATPDPGMFPCLHHSQNLLRAVSNMLQKARQTLEFYPCTSEEIDHEDITKDKTSTVEACLPLELTKNESCLNSRETSFITNGSCLASRKTSFMMALCLSSIYEDLKMYQVEFKTMNAKLLMDPKRQIFLDQNMLAVIDELMQALNFNSETVPQKSSLEEPDFYKTKIKLCILLHAFRIRAVTIDRVMSYLNASGGGGSGGGGS[skipping human IgG1 Fc with changes]
B2: T1.03: K&H bispecific: anti-hu FAP/hu IL-12 mut2, hu IgG1 DANG (seq1, seq2, seq5) (antibody)
heavy: B1 heavy
light: B1 light
chain: IWELKKDVYVVELDWYPDAPGEMVVLTCDTPEEDGITWTLDQSSEVLGSGKTLTIQVKEFGDAGQYTCHKGGEVLSHSLLLLHKKEDGIWSTDILKDQKEPKNKTFLRCEAKNYSGRFTCWWLTTISTDLTFSVKSSRGSSDPQGVTCGAATLSAERVRGDNKEYEYSVECQEDSACPAAEESLPIEVMVDAVHKLKYENYTSSFFIRDIIKPDPPKNLQLKPLKNSRQVEVSWEYPDTWSTPHSYFSLTFCVQVQGASAREAADRVFTDKTSATVICRKNASISVRAQDRYYSSSWSEWASVPCSGGGGSGGGGSGGGGSRNLPVATPDPGMFPCLHHSQNLLRAVSNMLQKARQTLEFYPCTSEEIDHEDITKDKTSTVEACLPLELTKNESCLNSRETSFITNGSCLASRKTSFMMALCLSSIYEDLKMYQVEFKTMNAKLLMDPKRQIFLDQNMLAVIDELMQALNFNSETVPQKSSLEEPDFYKTKIKLCILLHAFRIRAVTIDRVMSYLNASGGGGSGGGGS[skipping human IgG1 Fc with changes]
B3: T1.02: K&H bispecific: anti-hu FAP/hu IL-12 mut1, hu IgG1 DANG (seq1, seq2, seq4) (antibody)
heavy: B1 heavy
light: B1 light
chain: IWELKKDVYVVELDWYPDAPGEMVVLTCDTPEEDGITWTLDQSSEVLGSGKTLTIQVKEFGDAGQYTCHKGGEVLSHSLLLLHKKEDGIWSTDILKDQKEPKNKTFLRCEAKNYSGRFTCWWLTTISTDLTFSVKSSRGSSDPQGVTCGAATLSAERVRGDNKEYEYSVECQEDSACPAAEESLPIEVMVDAVHKLKYENYTSSFFIRDIIKPDPPKNLQLKPLKNSRQVEVSWEYPDTWSTPHSYFSLTFCVQVQGASKREAKDRVFTDKTSATVICRKNASISVRAQDRYYSSSWSEWASVPCSGGGGSGGGGSGGGGSRNLPVATPDPGMFPCLHHSQNLLRAVSNMLQKARQTLEFYPCTSEEIDHEDITKDKTSTVEACLPLELTKNESCLNSRETSFITNGSCLASRKTSFMMALCLSSIYEDLKMYQVEFKTMNAKLLMDPKRQIFLDQNMLAVIDELMQALNFNSETVPQKSSLEEPDFYKTKIKLCILLHAFRIRAVTIDRVMSYLNASGGGGSGGGGS[skipping human IgG1 Fc with changes]

What was measured:
recombinant human FAP = molecular target: T1, recombinant human FAP; experiment: Surface plasmon resonance binding to recombinant human FAP; details: SPR, 2 μg/ml protein, FIGS. 7 and 8
Description: Specifically, the surface of the CM5 chip was activated with a 1:1 mixture of […] NHS (N-hydroxysuccinimide) and […] EDC (1-Ethyl-3-(3-dimethylaminopropyl) carbodiimide), and 25 μg/ml of anti-human IgG (Fc) antibody was immobilized for 400 seconds at a rate of 10 μl/min. The remaining active ester groups were blocked with 1 M ethanolamine. T1.01, T1.02 and T1.03 were diluted to 2 μg/ml and reacted on the CM5 chip immobilized with the anti-human IgG (Fc) antibody. The recombinant human FAP was diluted to 200 nM in 1×HBS-EP+buffer solution and diluted by serial dilution. The diluted recombinant human FAP was reacted at a rate of 30 μl/min. The association and dissociation times were 180 seconds and 400 seconds, respectively. After the dissociation, stabilization was performed for 60 seconds, and then a regeneration was performed for 30 seconds with a 10 mM glycine pH 1.5 solution at a rate of 30 μl/min.
Bindings of T1.04, T1.05, T1.06, T1.07, T1.08, T1.09, T1.10 and T1.11 to recombinant human […] were identified by surface plasmon resonance (SPR). The surface of the CM5 chip was activated with a 1:1 mixture of […] (N-hydroxysuccinimide) and […] (1-Ethyl-3-(3-dimethylaminopropyl) carbodiimide), and 25 μg/ml of anti-human IgG (Fc) antibody was immobilized for 400 seconds at a rate of 10 μl/min. The remaining active ester groups were blocked with 1 M ethanolamine.
Specifically, human proteins T1.04, T1.05, T1.06, T1.07, T1.08, T1.09, T1.10 and T1.11 were diluted to 1 μg/ml, 1 μg/ml, 1 μg/ml, 1 μg/ml, 0.5 μg/ml, 0.5 μg/ml, 0.5 μg/ml, and 1 μg/ml, respectively, and reacted on a CM5 chip immobilized with an anti-human IgG (Fc) antibody. The recombinant human FAP was diluted to 25 nM or 50 nM in 1×HBS-EP+buffer solution and diluted by serial dilution. The diluted recombinant human FAP was reacted at a rate of 30 μl/min. The association and dissociation times were 180 seconds and 400 seconds, respectively. After the dissociation, stabilization was performed for 60 seconds, and then a regeneration was performed for 30 seconds with a 10 mM glycine pH 1.5 solution at a rate of 30 μl/min.

IL-12 receptor beta 1 = molecular target: T2, IL-12 receptor beta 1 (Homo sapiens, UniProt P42701); experiment: ELISA binding to recombinant human IL-12 receptor; details: serial dilution from 5 μg/ml, 1 nM IL-12Rβ1-Biotin, FIG. 17
T2 construct: purchased Acrobiosystems, Newark, USA
Description: T1.01, T1.02 and T1.03 were immobilized on a plate, and a recombinant human IL-12 receptor protein conjugated with horseradish peroxidase (HRP) was bound. Specifically, the following steps were performed:
(i) T1.01, T1.02, T1.03 and T1.12 were suspended at 5 μg/ml and diluted by serial dilution. The diluted T1.01, T1.02, T1.03 and T1.12 were aliquoted in a 96-well immune plate and treated for 24 hours.
(§1) (ii) The wells were washed with a wash solution, and then blocking was performed for 1 hour with 1% BSA (Bovine serum albumin, Sigma) solution.
(iii) The wells were washed with a wash solution, and then treated with 1 nM IL-12 receptor beta 1-biotin (IL-12Rβ1-Biotin; Acrobiosystems, Newark, USA) for 2 hours.
(iv) The wells were washed with a wash solution, and then treated with streptavidin-HRP for 20 minutes.
(v) The wells were washed with a wash solution, and then treated with a substrate solution for 20 minutes.
(vi) The wells were treated with a stop solution, and the absorbance was measured at 450 nm.

human T cells = experiment: IFN-γ secretion in human T cells (ELISA); type: cell-based; details: anti-CD3 activated human T cells, 48 hours, FIG. 21
Description: (§2) For cytokine measurement, enzyme-linked immunosorbent assay (ELISA, R&D systems) was performed on the supernatant stored at −20° C. in the following steps:
(§3) (i) The capture antibody was diluted according to the Certificate of Analysis (CoA) and coated on a 96-well plate for 24 hours.
as §1
(§4) (iii) The wells were washed with a wash solution, and then the samples were treated for 2 hours.
(§5) (iv) The wells were washed with a wash solution, and then the detection antibody was diluted according to the Certificate of Analysis and aliquoted into the wells, and then the wells were treated therewith for 2 hours.
(§6) (v) The wells were washed with a wash solution, and then treated with streptavidin-HRP for 20 minutes.
(§7) (vi) The wells were washed with a wash solution, and then treated with a substrate solution for 20 minutes.
(§8) (vii) The wells were treated with a stop solution, and the absorbance was measured at 450 nm.
(§9) Specifically, the human T cells activated with anti-CD3 (OKT3, Invitrogen) were diluted to 5×10^5 cells/ml and dispensed in a 96-well plate at 200 μl/well. Recombinant human IL-12, T1.12, T1.01, T1.02 and T1.03 were diluted to 10 nM and dispensed at 20 μl/well. After 48 hours of treatment, the cell supernatant was collected, and the samples were stored at −80° C.

human NK cells = experiment: IFN-γ secretion in human NK cells (ELISA); type: cell-based; parameters: unit not given here; details: IL-2 activated human NK cells, 24 hours, FIG. 22
Description: as §2, §3, §1, §4, §5, §6, §7, §8
as §9, with “human NK” for “human T”, “with recombinant human IL-2 (R&D Systems)” for “with anti-CD3 (OKT3, Invitrogen)”, “After 24” for “After 48”

| Molecule | Binding to recombinant human FAP (recombinant human FAP) | Binding to recombinant human IL-12 receptor protein (IL-12 receptor beta 1) | average IFN-γ in supernatant (human T cells) | average IFN-γ in supernatant (human NK cells) |
| --- | --- | --- | --- | --- |
| B1 | may specifically bind to recombinant human FAP | bind to the recombinant human IL-12 receptor protein in a concentration dependent manner | 1,115 pg/ml | 205 |
| B2 | may specifically bind to recombinant human FAP | bind to the recombinant human IL-12 receptor protein in a concentration dependent manner | 607 µg/mL | 80 |
| B3 | may specifically bind to recombinant human FAP | bind to the recombinant human IL-12 receptor protein in a concentration dependent manner | 845 µg/mL | 133 |
